In all, about 33,000 sequences were measured (“E-score (-0.5 to 0.5)”: median about -0.032, highest 2% from about 0.36 on). The list shows a part of the results.
Target: T1, Sko1 (UniProt Q02100)
T1 sequence: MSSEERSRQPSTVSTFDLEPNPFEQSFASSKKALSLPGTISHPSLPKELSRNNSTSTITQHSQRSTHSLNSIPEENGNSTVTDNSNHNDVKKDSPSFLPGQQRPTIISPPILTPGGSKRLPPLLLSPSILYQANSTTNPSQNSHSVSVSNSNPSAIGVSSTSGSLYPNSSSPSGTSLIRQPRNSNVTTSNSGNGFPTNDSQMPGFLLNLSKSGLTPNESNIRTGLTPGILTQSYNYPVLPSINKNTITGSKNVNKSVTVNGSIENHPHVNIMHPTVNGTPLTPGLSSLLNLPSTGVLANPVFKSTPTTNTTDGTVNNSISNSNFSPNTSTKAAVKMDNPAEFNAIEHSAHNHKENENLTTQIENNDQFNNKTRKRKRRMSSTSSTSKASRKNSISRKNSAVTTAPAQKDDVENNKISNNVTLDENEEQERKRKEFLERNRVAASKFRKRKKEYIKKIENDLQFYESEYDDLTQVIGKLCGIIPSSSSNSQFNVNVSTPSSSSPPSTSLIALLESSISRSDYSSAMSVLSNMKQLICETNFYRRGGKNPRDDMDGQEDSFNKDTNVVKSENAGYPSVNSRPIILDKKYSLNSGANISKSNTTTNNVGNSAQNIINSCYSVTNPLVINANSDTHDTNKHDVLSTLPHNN
Experiment: PBM E-score (8-mer binding enrichment) (E-score (-0.5 to 0.5)); higher = stronger / more preferred TF binding; most listed sequences are background and not binding sites
Conditions: protein concentration: 200 nM; construct: GST-full length
Summary of the method: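 Detection of bound protein used fluorescent anti-GST, with scans normalised by masliner. The proteins were GST-tagged yeast transcription factors applied at about 100-200 nM to universal all-10-mer Agilent arrays made double-stranded by primer extension. Each ungapped eight-base word, pooled with its reverse complement, was scored with an E-score from the Universal PBM Analysis Suite.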

| Sequence | PBM E-score |
| --- | --- |
| CTAGGCTA | -0.362 |
| AGGTGTAG | -0.179 |
| AAATATTC | 0.149 |
| GGGTAACC | -0.0845 |
| CGAGTAAA | 0.0446 |
| AAATAGAA | -0.0185 |
| GTCTGGGA | -0.133 |
| CCCTTGGC | -0.379 |
| GGCACTAC | -0.0301 |
| CGATTTAG | 0.0946 |
| GCGCTAAA | 0.0272 |
| GTTCGTTA | 0.107 |
| AAGTCGGT | -0.229 |
| CGGTTGAG | 0.051 |
| ACTATTCC | 0.05 |
| ATGTGCGG | -0.0523 |
| GGTACTGA | -0.0674 |
| GAGTCGCC | -0.275 |
| ACCTTGCC | -0.132 |
| ACGCCAAC | 0.193 |
| GGCCGAGA | -0.215 |
| TGCTGGAA | -0.137 |

| Sequence | PBM E-score |
| --- | --- |
| GGCGTTGA | -0.116 |
| CAACACAG | -0.108 |
| GTTACTGA | 0.173 |
| AACGCGTA | 0.287 |
| AGAACACG | 0.116 |
| ATAAACAA | 0.198 |
| CTCATGAA | 0.187 |
| AGTTTGTG | -0.246 |
| CAGGGGCA | -0.00747 |
| CTCCTTCA | -0.267 |
| AGGGATAT | -0.142 |
| GTCAAACA | 0.183 |
| CCCATGGC | -0.236 |
| GCGTAACA | 0.317 |
| AATTTGCA | -0.0162 |
| CCGTATCC | -0.133 |
| CATGTGCC | 0.045 |
| ATCCACGG | -0.0775 |
| GTCCCGTA | -0.168 |
| CACACTAC | 0.0507 |
| AATTTAAC | 0.159 |
| GTAGCATA | 0.152 |

| Sequence | PBM E-score |
| --- | --- |
| TTAAAAAA | 0.238 |
| GTAAGGAA | 0.103 |
| CGAGCGAG | 0.157 |
| CGTAATAC | 0.451 |
| CCGCTGGA | -0.296 |
| ACCCCGTG | -0.221 |
| ATTATTCG | 0.216 |
| CTAATAAG | 0.193 |
| ACCTGCAT | -0.13 |
| ATCCTCAT | -0.111 |
| GGTCCGCA | -0.14 |
| AGGCAGTC | -0.183 |
| CCTTCTCC | -0.396 |
| CCAACGTC | 0.236 |
| CGACACGA | 0.0391 |
| AACGAAGC | -0.0636 |
| CTCAATTA | 0.0785 |
| ACTAGCAT | -0.0799 |
| CAGACGGA | -0.205 |
| ACATATTC | 0.232 |
| AAACCTGT | 0.035 |
| AAGGCATG | 0.0622 |

| Sequence | PBM E-score |
| --- | --- |
| AGGCGTAA | 0.206 |
| CGCATACC | 0.0198 |
| AAAGTTTC | 0.081 |
| GAGTCGCA | -0.248 |
| GGCAATGA | 0.15 |
| CAGGTGAG | -0.297 |
| GGCCCCAC | -0.124 |
| CTGACTTC | -0.0329 |
| CACGCTGG | -0.0502 |
| CAAGTACA | 0.057 |
| CATCAGGG | -0.0575 |
| AGCAACCG | -0.124 |
| AATCGGCC | -0.316 |
| CCGATCCA | 0.0535 |
| AACGGGCT | -0.192 |
| GGTGATTA | 0.164 |
| ACCCTCCA | -0.325 |
| AACTTGCG | 0.184 |
| ATCAGACA | -0.0138 |
| CTAGTTAC | 0.099 |
| GTACATTA | 0.295 |
| AAGGATTA | -0.0223 |

| Sequence | PBM E-score |
| --- | --- |
| AGGTTGAC | -0.0293 |
| AGAGATTA | 0.0827 |
| ACCCGACG | 0.00176 |
| ACTAACCA | -0.0259 |
| GCGCCTAA | -0.0613 |
| CATAGGAG | 0.00533 |
| CACCGAAA | 0.0711 |
| CTCACAGC | -0.0866 |
| ATCTGCGG | -0.0643 |
| ACCAATTG | -0.0372 |
| AGAACCGG | -0.316 |
| ACGCCTCC | -0.151 |
| ATCCCCAG | -0.163 |
| AAATCCTA | 0.17 |
| ACTGAAGA | 0.0507 |
| AGGGGGAG | -0.356 |
| AGCCGTTG | -0.143 |
| CCCGGCGC | -0.279 |
| CCGTTGCC | -0.373 |
| ATCTGAAT | 0.0469 |
| ACAGGGAG | -0.225 |
